# Measured values published in the supplement of paper PMC5499739.
# Over roughly 16,000 sequences, “Z-score” has its median near -0.37; the highest 2% begin near 3.1. The list shows a part of the results.
# Tested on: RBM10 RRM1-ZnF-RRM2 (GST-tagged construct)
# Test: RNAcompete 7-mer binding Z-score; higher = stronger binding preference
# Method in brief: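 GST-tagged RBM10 constructs (20 pmol) were mixed with a designed pool of 241 399 RNAs up to 41 nt (1.5 nmol), transcribed from microarray-derived DNA templates. Mixing was in 1 ml Hepes pH 7.8 buffer with KCl, NaCl, glycerol, DTT, BSA and glutathione Sepharose beads. Binding ran 30 min at 4°C, followed by four 2-min washes at 4°C, and bound RNA was identified by microarray hybridisation. Each heptamer motif received a one-sided Z-score for enrichment across probes containing it.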
row,Sequence,RNAcompete 7-mer binding Z-score
1,AGGGAAG,4.36
2,UUAAUGU,-0.311
3,UGCGAGU,0.206
4,UGGUAUC,0.104
5,AAUGAGC,0.399
6,CUAUACU,-0.803
7,GUCACAG,0.487
8,UACCAAA,-0.078
9,UCUCAGU,-0.679
10,CUGUACU,-0.803
11,CAUACAG,-0.231
12,CUACAUA,-0.511
13,CGCCGUC,-0.486
14,AGAUACU,-0.701
15,GUAGACG,1.48
16,CGUAUCU,-0.599
17,AACUACU,-0.704
18,AGAGUGC,0.0786
19,UUCGAUG,-0.307
20,AGCAUAG,0.567
21,CUGUCGU,-0.639
22,CCCGGAA,-0.5
23,AACCGGA,0.414

row,Sequence,RNAcompete 7-mer binding Z-score
1,UUCCGCC,-0.836
2,AGAUGAA,1.44
3,GUUACAG,0.632
4,UGGCGAU,0.833
5,GGACCGC,-0.205
6,GGUGCAA,1.47
7,CCGACUC,-0.963
8,UGUAAGG,1.43
9,AAUGGAU,2.33
10,UGGUGGA,2.74
11,AGCGUAG,0.672
12,UGAACGG,1.34
13,UCUGUGA,-0.533
14,UGAGUAG,1.05
15,CUUUACG,-0.81
16,GAGUGCC,-0.315
17,AGCGGUC,0.173
18,GUUAAGC,-0.154
19,CACGCCG,-0.548
20,CAACUUG,-0.694
21,UAUGCUA,-0.559
22,GUCGCUA,-0.22
23,AAAUGCG,0.221

row,Sequence,RNAcompete 7-mer binding Z-score
1,UGCUCGA,-0.748
2,ACAAGCC,-0.621
3,CAGCAUG,-0.0415
4,CUAUUCA,-0.836
5,UUAAAGU,-0.46
6,CUUCUAA,-0.897
7,UCUGGAU,-0.202
8,UAAGGCC,-0.191
9,UAUUAGA,0.00944
10,CUCGAGG,0.29
11,CCGCUGG,-0.464
12,GGAACUC,0.0823
13,GCGGCUG,0.476
14,UGGCACG,0.596
15,GGCUUGA,0.0204
16,AGGAGCU,0.723
17,ACGAUCA,-0.173
18,UAUUACC,-0.792
19,UAGCUAA,-0.369
20,UCCUUUA,-0.883
21,CUUCGAU,-0.795
22,CCCCUUC,-0.624
23,AAAUUAU,-0.533

row,Sequence,RNAcompete 7-mer binding Z-score
1,AUGUCGU,-0.286
2,AUUGUGA,0.108
3,GGCUAAG,0.454
4,CCUCCGU,-0.734
5,AUCACUC,-0.77
6,CCGGUUC,-0.624
7,GUGCUAA,0.137
8,CAGGAAA,1.26
9,CCUUCAC,-0.927
10,UCCUCAA,-0.799
11,AUACGUA,0.166
12,UUUUAUG,-0.653
13,GCACACA,-0.344
14,GUAUUGU,-0.347
15,CUGAUUU,-0.799
16,UUAUCAG,-0.468
17,ACUUAAG,-0.417
18,UCCCACU,-0.781
19,GCCAUGU,-0.632
20,CCGAUAA,-0.5
21,CGAGCGU,0.166
22,UUAUAUC,-0.712
23,CCAGCGG,0.465

row,Sequence,RNAcompete 7-mer binding Z-score
1,AACGAGC,0.283
2,GAGCGUU,0.0786
3,CGUCGUC,-0.468
4,GAGACCG,-0.0452
5,UCUUCCU,-0.701
6,CAAAUGG,1.24
7,GUUUACC,-0.326
8,GCGUUCU,-0.624
9,CCUACUC,-0.846
10,GUCUCAC,-0.486
11,GUCAAUA,-0.147
12,CAGAAAG,0.723
13,CGACUCU,-0.908
14,AUAAGAU,-0.195
15,GACACGC,-0.49
16,AAAAGAC,-0.00512
17,AGUACUA,-0.296
18,AGCUCGA,-0.406
19,AUCAGGA,1.28
20,ACGAGAG,0.709
21,CCGUAGC,-0.679
22,CUAGGGC,0.709
23,GGUUCUU,-0.457

row,Sequence,RNAcompete 7-mer binding Z-score
1,GACAGUU,-0.129
2,CAAGGUC,0.0714
3,CGGACCG,-0.267
4,GAUACGA,0.323
5,GUAUACA,0.29
6,CGAAACG,0.0459
7,AAGCCAU,-0.694
8,CCGCGCC,-0.748
9,GGGGAUC,2.27
10,UUUCCGG,-0.464
11,UUGGUUG,0.392
12,GGCGGUA,1.72
13,UCGGGCG,1.34
14,ACUUGUA,-0.646
15,UAGUACC,-0.621
16,GAUAGAG,1.52
17,AGUCCGG,0.104
18,GCCCGAG,-0.453
19,CAGUAAU,-0.275
20,UUUGGUU,0.0313
21,GCUCCGC,-0.759
22,GCAUGGA,1.99
23,GCCUACA,-0.916

row,Sequence,RNAcompete 7-mer binding Z-score
1,UCUGAAU,-0.759
2,CCUGCGU,-0.748
3,CUACUGG,-0.406
4,UCCCUCC,-0.683
5,CGCUGAU,-0.694
6,ACAUUUA,-0.785
7,UACAGCG,0.148
8,AAAAGAG,0.694
9,GACUGAG,0.414
10,AUUAAUC,-0.49
11,UUAUGCG,-0.326
12,GCGCGCG,0.563
13,UGGCUAG,0.519
14,CCCAUUG,-0.712
15,UAAUGUA,-0.158
16,AGGGAAC,3.06
17,AUAUAUC,-0.533
18,UUACCCC,-0.719
19,UCAGCGG,0.246
20,UGGCAAA,1.16
21,GCAAUCA,-0.114
22,UAACGGC,-0.0707
23,GCUUCGA,-0.5

row,Sequence,RNAcompete 7-mer binding Z-score
1,UAUUGUC,-0.675
2,GUUCAUC,-0.526
3,CGGUAGU,0.37
4,UACAGUU,-0.384
5,UUUGUCC,-0.85
6,GAGCGCU,-0.471
7,UCUUGGA,-0.362
8,UGGAAUU,0.527
9,AAGACGC,-0.253
10,CAUUUUU,-0.872
11,GUGCCAU,-0.395
12,AUCAACU,-0.592
13,UGUAUAU,-0.369
14,UCGCAGG,0.29
15,CACUGCU,-0.843
16,CUGUUUC,-0.846
17,CAUGCCC,-0.854
18,ACCCUAC,-0.832
19,UGCUUUC,-0.781
20,GGGAUUG,2.81
21,GCUGCAC,-0.475
22,AGUGUAA,0.578
23,UUCGCGU,-0.504
